Results as given in the supplement of paper PMC10369915.
This is one part of the list. Rule as the data show it: active = 3.2 or more and inactive = the rest. The signal is at background level for most entries.

B1: CAMK2A_Y106_YF (peptide)
chain: IVAREYFSEAD
B2: CBFB_Y96 (peptide)
chain: EAGKVYLKAPM
B3: CBL_Y371_Y371H_YF (peptide)
chain: EQFELHCEMGS
B4: CAT_Y358_R363C (peptide)
chain: GRLFAYPDTHC
B5: CASK_Y712_D710G (peptide)
chain: QYKGKYLAKHN
B6: CARMIL1_Y637_A639G (peptide)
chain: MPIPMYDGSQA
B7: CARD11_Y970_R975W (peptide)
chain: LVRAFYCERRW
B8: CAMK2A_Y106_E109D_YF (peptide)
chain: IVAREYFSDAD
B9: CASP5_Y74 (peptide)
chain: VKMLEYLGKDV
B10: CASP5_Y104_T106A (peptide)
chain: EKKKYYDAKIE
B11: CAP2_Y316_T311A (peptide)
chain: ASPKSYPSQKH
B12: CASK_Y712 (peptide)
chain: QYKDKYLAKHN
B13: CAMK2B_Y107_E110K (peptide)
chain: IVAREYYSKAD
B14: CASP5_Y104 (peptide)
chain: EKKKYYDTKIE
B15: CASD1_Y382 (peptide)
chain: IMAYFYMCDRA
B16: CBL_Y368_YF (peptide)
chain: VTQEQYELFCE
B17: CAP2_Y316 (peptide)
chain: TSPKSYPSQKH
B18: CASQ2_Y178_YF (peptide)
chain: SEDSEYFKAFE
B19: CBL_Y368_Y371H (peptide)
chain: VTQEQYELHCE
B20: CARD9_Y76_G72S (peptide)
chain: TSHKGYVAFLE
B21: CAP2_Y316_Y316C (peptide)
chain: TSPKSCPSQKH
B22: CAMKV_Y491 (peptide)
chain: EEAAGYAQESQ
B23: CAT_Y386_Q387H (peptide)
chain: ARVANYHRDGP
B24: CBL_Y368_Q367P_YF (peptide)
chain: VTQEPYELFCE
B25: CASP5_Y103_T106A_YF (peptide)
chain: EEKKKYFDAKI
B26: CASP5_Y104_YF (peptide)
chain: EKKKFYDTKIE
B27: CAMKV_Y491_Y491C (peptide)
chain: EEAAGCAQESQ
B28: CASD1_Y382_R386S_YF (peptide)
chain: IMAFFYMCDSA
B29: CAMK2B_Y107_E110K_YF (peptide)
chain: IVAREYFSKAD
B30: CASK_Y708_D710G_YF (peptide)
chain: KKKKQYKGKFL
B31: CASQ2_Y179_YF (peptide)
chain: EDSEFYKAFEE
B32: CBL_Y371_Y371H (peptide)
chain: EQYELHCEMGS
B33: CBFB_Y96_P100A (peptide)
chain: EAGKVYLKAAM
B34: CAMK2A_Y230 (peptide)
chain: IKAGAYDFPSP
B35: CASP5_Y103_T106A (peptide)
chain: EEKKKYYDAKI
B36: CBL_Y371_Q367P (peptide)
chain: EPYELYCEMGS
B37: CAMKK2_Y183 (peptide)
chain: VVKLAYNENDN

These binders were tested against SHP2 C-SH2 domain E139D (assay: enrichment score (SH2-bound / input frequency) (ratio); bacterial display of known human phosphotyrosine sites (pTyr-Var adds point mutants) read by sequencing; higher = stronger binding; tyrosines were phosphorylated by kinases first). Settings: peptide library: pTyr-Var.
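Also: displayed peptides selected on beads carrying the immobilized SH2 domain, with library peptides lacking any tyrosine serving as negative controls.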

Binder | enrichment score
B1 | inactive: 0.721
B2 | inactive: 0.582
B3 | inactive: 1.04
B4 | inactive: 0.952
B5 | inactive: 1.18
B6 | inactive: 0.895
B7 | inactive: 0.509
B8 | inactive: 0.781
B9 | inactive: 1.14
B10 | inactive: 0.594
B11 | inactive: 0.612
B12 | inactive: 1.16
B13 | inactive: 1.2
B14 | inactive: 0.693
B15 | inactive: 1.37
B16 | inactive: 0.598
B17 | inactive: 0.513
B18 | inactive: 0.551
B19 | inactive: 0.963

Binder | enrichment score
B20 | inactive: 0.838
B21 | inactive: 0.713
B22 | inactive: 0.547
B23 | inactive: 0.656
B24 | inactive: 0.827
B25 | inactive: 0.778
B26 | inactive: 0.828
B27 | inactive: 0.569
B28 | inactive: 2.96
B29 | inactive: 0.913
B30 | inactive: 0.212
B31 | inactive: 0.677
B32 | inactive: 0.907
B33 | inactive: 0.635
B34 | inactive: 0.701
B35 | inactive: 0.707
B36 | inactive: 1.12
B37 | inactive: 0.925

The binders below were run against SHP2 C-SH2 domain wild-type in the same assay as above. Settings: peptide library: pTyr-Var.

Binder | enrichment score
B1 | inactive: 0.974
B2 | inactive: 0.783
B3 | inactive: 0.843
B4 | inactive: 1.11
B5 | inactive: 1.14
B6 | inactive: 0.708
B7 | inactive: 0.332
B8 | inactive: 0.685
B9 | inactive: 0.991
B10 | inactive: 0.703
B11 | inactive: 0.578
B12 | inactive: 0.848
B13 | inactive: 0.987
B14 | inactive: 0.78
B15 | inactive: 1.64
B16 | inactive: 1.04
B17 | inactive: 0.366
B18 | inactive: 0.658
B19 | inactive: 0.821

Binder | enrichment score
B20 | inactive: 1.14
B21 | inactive: 0.607
B22 | inactive: 0.531
B23 | inactive: 0.588
B24 | inactive: 0.98
B25 | inactive: 0.8
B26 | inactive: 0.72
B27 | inactive: 0.451
B28 | inactive: 2.97
B29 | inactive: 0.738
B30 | inactive: 0.489
B31 | inactive: 0.639
B32 | inactive: 0.639
B33 | inactive: 0.746
B34 | inactive: 0.798
B35 | inactive: 0.88
B36 | inactive: 1.01
B37 | inactive: 0.72

Each binder was assayed against SHP2 N-SH2 domain L43F in the same assay as above. Settings: peptide library: pTyr-Var.

Binder | enrichment score
B1 | inactive: 0.7
B2 | inactive: 0.867
B3 | inactive: 1
B4 | inactive: 0.856
B5 | inactive: 1.32
B6 | inactive: 0.792
B7 | inactive: 0.399
B8 | inactive: 0.878
B9 | inactive: 1.33
B10 | inactive: 0.805
B11 | inactive: 0.601
B12 | inactive: 0.833
B13 | inactive: 1.27
B14 | inactive: 0.632
B15 | inactive: 1.47
B16 | inactive: 0.665
B17 | inactive: 0.393
B18 | inactive: 0.611
B19 | inactive: 0.55

Binder | enrichment score
B20 | inactive: 0.915
B21 | inactive: 0.69
B22 | inactive: 0.531
B23 | inactive: 0.608
B24 | inactive: 0.957
B25 | inactive: 0.728
B26 | inactive: 0.827
B27 | inactive: 0.425
B28 | inactive: 2.64
B29 | inactive: 0.839
B30 | inactive: 0.47
B31 | inactive: 0.614
B32 | inactive: 0.791
B33 | inactive: 0.666
B34 | inactive: 0.775
B35 | inactive: 0.567
B36 | inactive: 0.866
B37 | inactive: 0.763

Each binder was assayed against SHP2 N-SH2 domain T42A in the same assay as above. Settings: peptide library: pTyr-Var.

Binder | enrichment score
B1 | inactive: 0.757
B2 | inactive: 0.748
B3 | inactive: 0.883
B4 | inactive: 0.927
B5 | inactive: 1.21
B6 | inactive: 0.739
B7 | inactive: 0.358
B8 | inactive: 0.695
B9 | inactive: 1.38
B10 | inactive: 0.824
B11 | inactive: 0.579
B12 | inactive: 0.645
B13 | inactive: 0.689
B14 | inactive: 0.624
B15 | inactive: 1.31
B16 | inactive: 0.693
B17 | inactive: 0.352
B18 | inactive: 0.522
B19 | inactive: 0.639

Binder | enrichment score
B20 | inactive: 0.762
B21 | inactive: 0.576
B22 | inactive: 0.437
B23 | inactive: 0.567
B24 | inactive: 0.675
B25 | inactive: 1.08
B26 | inactive: 0.82
B27 | inactive: 0.436
B28 | inactive: 2.36
B29 | inactive: 0.817
B30 | inactive: 0.347
B31 | inactive: 0.525
B32 | inactive: 0.685
B33 | inactive: 0.673
B34 | inactive: 0.68
B35 | inactive: 1.11
B36 | inactive: 0.735
B37 | inactive: 0.786

What follows are binders tested against SHP2 N-SH2 domain T52S in the same assay as above. Settings: peptide library: pTyr-Var.

Binder | enrichment score
B1 | inactive: 0.849
B2 | inactive: 0.809
B3 | inactive: 0.533
B4 | inactive: 1.06
B5 | inactive: 1.08
B6 | inactive: 0.761
B7 | inactive: 0.448
B8 | inactive: 0.919
B9 | inactive: 1.41
B10 | inactive: 0.844
B11 | inactive: 0.503
B12 | inactive: 1.08
B13 | inactive: 1.08
B14 | inactive: 0.743
B15 | inactive: 1.4
B16 | inactive: 0.651
B17 | inactive: 0.501
B18 | inactive: 0.662
B19 | inactive: 0.631

Binder | enrichment score
B20 | inactive: 1.13
B21 | inactive: 0.619
B22 | inactive: 0.563
B23 | inactive: 0.606
B24 | inactive: 0.671
B25 | inactive: 0.637
B26 | inactive: 0.838
B27 | inactive: 0.56
B28 | inactive: 2.21
B29 | inactive: 1.05
B30 | inactive: 0.531
B31 | inactive: 0.596
B32 | inactive: 0.712
B33 | inactive: 0.618
B34 | inactive: 0.734
B35 | inactive: 0.601
B36 | inactive: 0.685
B37 | inactive: 1.03

These binders were tested against SHP2 N-SH2 domain wild-type in the same assay as above. Settings: peptide library: pTyr-Var.

Binder | enrichment score
B1 | inactive: 0.828
B2 | inactive: 1.08
B3 | inactive: 1.15
B4 | inactive: 1.21
B5 | inactive: 1.18
B6 | inactive: 0.755
B7 | inactive: 0.311
B8 | inactive: 0.937
B9 | inactive: 1.16
B10 | inactive: 1.05
B11 | inactive: 0.456
B12 | inactive: 0.653
B13 | inactive: 1.02
B14 | inactive: 0.928
B15 | inactive: 1.98
B16 | inactive: 0.738
B17 | inactive: 0.414
B18 | inactive: 0.919
B19 | inactive: 0.726

Binder | enrichment score
B20 | inactive: 0.774
B21 | inactive: 0.678
B22 | inactive: 0.327
B23 | inactive: 0.805
B24 | inactive: 0.639
B25 | inactive: 1.3
B26 | inactive: 0.886
B27 | inactive: 0.474
B28 | active: 3.32
B29 | inactive: 1.06
B30 | inactive: 0.566
B31 | inactive: 0.581
B32 | inactive: 0.849
B33 | inactive: 0.819
B34 | inactive: 0.829
B35 | inactive: 0.927
B36 | inactive: 0.957
B37 | inactive: 1.09
